Results from PubChem BioAssay AID1159614 (National Center for Advancing Translational Sciences (NCATS), 2016).
The whole screen tested about 45,000 compounds, of which about 65 (0.1%) were called active. Calls come from the whole dose curve; as a rule, active = well fitted activation curve with a large enough effect; inconclusive = small, poorly fitted or top-dose-only effect; inactive = no such curve, though single readings can be large or run the other way. The list shows a part of the results.

target: Galactocerebrosidase (Homo sapiens) (UniProt P54803); assay: A Novel Cell-Based Assay to Identify Small Molecules for B -Galactocerebrosidase; settings: 145M-Twi-hGALC-G270D cells (Twitcher mouse brain line with human GALC G270D), HMU-beta-Gal fluorescence, 48 h; series mostly up to 57.5 µM; activation: at the top concentration; note: 0% is about no effect; nearly all actives have a fitted effect of over 65% in size
Outline: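 Brain-derived Twitcher mouse 145M-Twi cells stably expressing human GALC-G270D or wild-type GALC, treated live, then residual GALC activity read by fluorescence of HMU-b-Gal substrate (0.1 mM final) in citrate-phosphate buffer pH 5.2 with sodium taurocholate. Signal increase indicates enhancement.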

Sequence of UniProt P54803 (P54803 whole entry, looked up): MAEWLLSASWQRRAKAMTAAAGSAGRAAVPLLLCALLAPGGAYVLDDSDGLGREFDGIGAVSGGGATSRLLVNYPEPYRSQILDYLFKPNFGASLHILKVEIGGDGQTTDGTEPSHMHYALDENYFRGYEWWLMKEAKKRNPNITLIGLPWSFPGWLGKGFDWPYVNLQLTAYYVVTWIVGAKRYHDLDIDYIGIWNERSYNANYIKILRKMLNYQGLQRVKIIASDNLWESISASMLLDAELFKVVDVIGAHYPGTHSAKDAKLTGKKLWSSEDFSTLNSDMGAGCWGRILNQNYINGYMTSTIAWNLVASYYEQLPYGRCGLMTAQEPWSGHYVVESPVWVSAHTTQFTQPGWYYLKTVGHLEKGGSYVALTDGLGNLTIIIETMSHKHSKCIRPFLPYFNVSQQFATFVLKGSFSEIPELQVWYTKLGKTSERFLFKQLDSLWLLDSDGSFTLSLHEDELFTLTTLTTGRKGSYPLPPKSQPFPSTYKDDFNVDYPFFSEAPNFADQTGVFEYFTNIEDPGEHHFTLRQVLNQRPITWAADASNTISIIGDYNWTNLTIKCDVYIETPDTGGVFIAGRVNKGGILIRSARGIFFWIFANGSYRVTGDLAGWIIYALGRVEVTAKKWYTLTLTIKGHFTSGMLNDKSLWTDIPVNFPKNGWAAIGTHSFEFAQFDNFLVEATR

activation, inactive:
Cc1ccc(NC(=O)Nc2nnc(N3CCCC3)s2)c(C)c1 8.33%
Cc1ccc(CNC(=O)Cc2coc3cc(C)cc(C)c23)cc1 -14.8%
COc1ccc(-c2cn3nc(N4CCC(C(=O)Nc5cccc(Cl)c5)CC4)sc3n2)cc1 -10.6%
COc1cc(CN(CC2CCCO2)C(=O)c2ccc(F)cc2)cc(OC)c1OC (stereo not given) -4.69%
CC(=O)N1CCCc2cc(S(=O)(=O)N3CCC(C(=O)NCc4ccc(N(C)C)cc4)CC3)ccc21 -20.2%
CCCNC(=O)c1ccc(-n2c(-c3ccccc3)cc3c2CCCCC3)cc1 -0.368%
COc1ccc(CNC(=O)CCC(=O)N2CC3CCCN3c3ccccc32)cc1 (stereo not given) -12.8%
COc1ccccc1CNC(=O)c1ccc(CS(=O)(=O)c2ccccc2C)o1 -8.36%
O=C(NCc1ccccc1)c1ccc(NC(=O)c2nsc3ccccc23)cc1 -8.7%
CCOC(=O)c1ccc(NC(=O)C2CCCN(c3ccc(Sc4ccc(C)cc4)nn3)C2)cc1 (stereo not given) 1.78%
Cc1cc(Br)ccc1NC(=O)CCS(=O)(=O)c1cccc2nsnc12 -6.94%
CC(=O)NCCNc1nc2c(S(=O)(=O)c3ccc(C)c(C)c3)nnn2c2ccc(Cl)cc12 24%
CCN(C(=O)CN(C)S(=O)(=O)c1ccc2c(c1)c(=O)n(C)c(=O)n2C)c1ccc(OC)cc1 -41.5%
COC(=O)c1ccc(-n2nnc(-c3nc(-c4ccc5c(c4)OCO5)no3)c2C)cc1 -25%
CC(C)c1nc2ccc(C(=O)NCCCN3CCN(c4ccccc4F)CC3)cc2o1 -8.23%
Cn1c(=NC(=O)c2ccc3c(c2)OCCO3)sc2cc(S(C)(=O)=O)ccc21 -15.6%
COc1ccccc1CNC(=O)C(CC(C)C)NS(=O)(=O)c1ccc2c(c1)oc(=O)n2C (stereo not given) 2.78%
Cc1ccccc1-c1noc(C(C)NC(=O)c2ccco2)n1 (stereo not given) -8.11%
CCC(=O)N1CCc2cc(S(=O)(=O)NCCC(=O)NCc3ccccc3Cl)ccc21 -3.27%
Cc1ccc(C(C)C)c(OCC(=O)Nc2ccc(S(=O)(=O)Nc3onc(C)c3C)cc2)c1 -3.57%
CCOc1ccc2nc(NC(=O)CS(=O)(=O)c3ccc(Cl)cc3)sc2c1 -16.9%
Cc1ccc(C2c3c(oc4ccccc4c3=O)C(=O)N2c2ccc(C)cn2)cc1 (stereo not given) -0.799%
N#Cc1ccc(CN2C(=O)c3ccccc3Sc3ccc(C(=O)OCc4ccco4)cc32)cc1 -3%
Cn1c(=O)nc2n(-c3ccc(Cl)c(Cl)c3)c3cc(Cl)ccc3cc-2c1=O -2.25%
CCCCNC(=O)NS(=O)(=O)c1ccc(C)cc1 -10%
O=C(Nc1c(C(=O)Nc2ccc(F)cc2)oc2ccccc12)c1ccccc1F -3.08%
Cc1ccc(C)c(NC(=O)CN2C(=O)COc3ccc(Cl)cc32)c1 -0.469%
Cc1cc(O)cc2c1O[C@](C)(CCC[C@H](C)CCC[C@H](C)CCCC(C)C)CC2 -7.24%
COc1ccccc1CNC(=O)C1CCCN(c2nnc(-n3c(C)ccc3C)s2)C1 (stereo not given) -10.1%
CC1=C(C(=O)OCC2CCCCC2)C(c2ccccc2F)CC(=O)N1 (stereo not given) -9.11%
Cc1ccc(C(C)C)c(OCC(=O)N2CCC(c3nc4ccccc4o3)CC2)c1 -5.02%
COc1ccc(C(=O)N(Cc2ccc(C(C)C)cc2)C2CCS(=O)(=O)C2)cc1 (stereo not given) -11.5%
Cc1ccccc1CNS(=O)(=O)c1csc(C(N)=O)c1 -15.7%
Cc1nc2nc(SCC(=O)NCCc3ccccc3)nn2c(C)c1Cc1c(F)cccc1Cl -6.38%
Cc1nn(-c2ccc(N3CCOCC3)nn2)c(C)c1CCC(=O)NCc1ccc(OC(C)C)cc1 -11.6%
Cc1c(C2=CCN(S(=O)(=O)c3ccc(CC(C)C)cc3)CC2)c2ccccc2n1CC(=O)N1CCCC1 8.53%
CCn1c(SCCOc2ccccc2F)nc2ccccc21 -12.9%
CCOc1ccccc1C(=O)Nc1ccc2c(c1)N(C)C(=O)c1ccccc1S2 0.5%
Cc1cccc(N(C)S(=O)(=O)c2cc3c(cc2Cl)NC(=O)CO3)c1 -14.5%
Cc1nn2c(=O)cc(COC(=O)c3cccc(NC(=O)c4cccs4)c3)nc2s1 -8.81%
CCOc1ccc(NS(=O)(=O)c2ccc3[nH]c4c(c3c2)CCCC4)cc1 -9.94%
Cc1c(Cl)cccc1NC(=O)CSc1nc(=O)n(Cc2ccccn2)c2c1CCC2 -13.3%
CCCSc1ncc(Cl)c(C(=O)Nc2sc3c(c2C(=O)NCCOC)CCCC3)n1 1.52%
Cc1ccc(CNS(=O)(=O)c2ccc3c(c2)CCN3S(C)(=O)=O)cc1 -10.7%
COc1ccc2nc(N(Cc3cccnc3)C(=O)c3ccc4c(c3)OCCO4)sc2c1 -13.6%
COc1ccc(N(CC(=O)N2CCN(c3cccc(C)c3C)CC2)S(=O)(=O)c2c(C)noc2C)cc1 -0.0218%
COc1ccc(-c2cn3nc(N4CCC(C(=O)Nc5cccc(C)c5C)CC4)sc3n2)cc1 1.82%
O=C(COc1ccccc1Cl)Nc1ccc2oc(-c3ccccc3F)nc2c1 -7.87%
COCCNC(=O)CCCn1c(=O)c2cc(OC)c(OC)cc2n(CC(=O)Nc2ccc(F)cc2)c1=O -4.58%
COc1cc(NC(=O)Cn2nc(C(F)(F)F)c3c2CCCC3)c(OC)cc1Cl -25.5%
Cc1nn2c(=O)cc(COC(=O)c3ccc(NC(=O)C4CCCCC4)cc3)nc2s1 -18.5%
Cc1ccc(NC(=O)Cn2c(=O)n(CCCCC(=O)NCCc3ccccc3)c(=O)c3ccccc32)c(C)c1 -16.9%
O=C(Nc1ccc(F)cc1F)c1cc(-c2ccccc2O)no1 -5.86%
CCCCOC(=O)c1ccc(NC(=O)c2cc3c(=O)n4cccc(C)c4nc3n2C)cc1 -7.5%
CCOc1ccc(CNC(=O)c2ccc(-c3nc(CS(=O)(=O)c4ccccc4)c(C)o3)cc2)cc1 -12.6%
Cc1ccc(NC(=O)C(NS(=O)(=O)c2ccc3c(c2)CCC(=O)N3)c2ccccc2)cc1C (stereo not given) -2.27%
O=C(CSc1nc(=O)[nH]c2c1CCCC2)Nc1ccccc1C(F)(F)F -13.4%
CCOC(=O)C1CCN(CCC(=O)Nc2ccc(Br)c(C)c2)CC1 -15.6%
COc1ccc(NC(=O)CN2CCCN(Cc3ccc(Cl)cc3)S2(=O)=O)cc1Cl -3.47%
COc1ccc(CNC(=O)c2cnc3sc(N4CCCCCC4)nn3c2=O)cc1 -6.93%
CCOC(=O)c1cnc2ccccc2c1NCCc1ccc(OC)c(OC)c1 -6.94%
CCOC(=O)c1ccc(NC(=O)Cn2cc(C(=O)c3ccc(CC)cc3)c(=O)c3ccc(C)nc32)cc1 -0.323%
CCN1c2ccccc2-c2nc(SCC(=O)NCc3ccc(C)cc3)ncc2S1(=O)=O -10.1%
CCOc1ccc(NC(=O)CN(c2ccc(CC)cc2)S(=O)(=O)c2c(C)noc2C)cc1 -7.89%
CCOc1ccc(-c2nc(Cn3c(=O)cc(-c4ccccc4)c4c(C)nn(C)c43)c(C)o2)cc1 -4.56%
Cc1ccc(CNC(=O)C2CCN(S(=O)(=O)c3c(C)noc3/C=C/c3cccs3)CC2)cc1 -1.55%
Cc1sc2ncn(CC(=O)N3CCN(c4ccc(F)cc4)CC3)c(=O)c2c1S(=O)(=O)N1CCC(C)CC1 -5.1%
COC(=O)C1=C(c2ccccc2)c2ccccc2S(=O)(=O)N1CC(=O)Nc1ccc(F)c(F)c1 -14.6%
Cc1ccc(CNC(=O)Cn2c(=O)cc(C(F)(F)F)c3c(C)nn(C)c32)cc1 -10.2%
Oc1c(C(c2ccc(Cl)cc2Cl)N2CCN(c3ccccc3)CC2)sc2nc(-c3ccco3)nn12 (stereo not given) -13.7%
O=C(NCc1cccc(Cl)c1)c1ccc(NC(=O)N2CC3CCCN3c3ccccc32)cc1 (stereo not given) -15.9%
CC(C)Oc1ccc(CNC(=O)c2ccc(CN3CC(=O)N4CCCCC4C3=O)cc2)cc1 (stereo not given) -12.9%
CSc1ncc(C(=O)NCc2cccc(F)c2)c(-c2ccccc2)n1 2.25%
O=C(CCS(=O)(=O)c1cc2c(cc1Cl)NC(=O)CO2)NCc1ccccc1Cl -16.1%
CCCc1nc(SC)ncc1C(=O)N1CCN(c2ccc(Cl)cc2)CC1 1.36%
COc1ccc(CN(Cc2ccco2)c2cnc(S(C)(=O)=O)nc2C(=O)Nc2ccc(C)c(Cl)c2)cc1 -16%
O=C(Nc1ccc2nc(SCC(=O)N3CCc4ccccc43)sc2c1)c1ccc(F)cc1 -8.05%
O=c1c2oc3ccccc3c2n(Cc2ccccc2Cl)c(=O)n1Cc1ccco1 -7.6%
O=C(NCCc1ccccc1)C1CCC(CNS(=O)(=O)c2ccccc2)CC1 (stereo not given) -10.9%
CC(C)Oc1ccc(C(=O)N2CCN(CCc3ccccn3)CC2)cc1 -6.45%
CCCn1c(SCc2nc(-c3ccc(OC)c(OC)c3)no2)nnc1-c1ccccc1 -17.1%
Cc1ccc(NC(=O)c2cnn3c(C(F)F)cc(-c4ccccc4)nc23)cc1F -10%
CC1CCc2nn(CC(=O)Nc3ccccc3Cl)cc2C1 (stereo not given) -10.2%
CCOc1ccc(NC(=O)NCCc2c(C)nn(C)c2C)cc1 -12.8%
Cc1cccc(N2CCN(C(=O)CN3CCSc4ccccc43)CC2C)c1 (stereo not given) -31.2%
CCc1ccc(-c2nc3c(c(SCc4ccccc4F)n2)Cc2c(CO)cnc(C)c2O3)cc1 -11.9%
COc1ccc(NC(=O)C(=O)NCC(c2cccnc2)N2CCc3ccccc32)cc1OC (stereo not given) -26.1%
COc1cccc(S(=O)(=O)N2CCN(Cc3ccc4c(c3)OCO4)CC2)c1 -12.7%
Cc1ccc(NC(=O)C(C)Sc2nc(=O)cc(N)n2-c2cccc(C)c2)cc1 (stereo not given) -6.87%
CN(Cc1ccccc1)S(=O)(=O)c1ccc(-c2cnc(C3CC3)o2)cc1 -12.1%
Cc1c(C2=CCN(S(=O)(=O)c3cccc(Cl)c3)CC2)c2ccccc2n1CC(=O)N1CCCC1 -9.24%
CCOc1ccccc1NC(=O)CN1C(=O)CC(c2ccc(OC)c(OC)c2)Sc2ccccc21 (stereo not given) -5.39%
Cc1ccc(-c2nnc(C3CCN(S(=O)(=O)c4ccc(C)c(C)c4)CC3)o2)cc1 -22.7%
Cn1c(-n2cccc2)c(-c2c(-c3ccccc3)[nH]c3c2c(=O)n(C)c(=O)n3C)c(=O)n(C)c1=O -13.5%
CCCCOC(=O)c1ccc(NC(=O)CSc2nc3c(c(=O)[nH]2)CCCC3)cc1 -9.24%
